Over roughly 33,000 sequences, “E-score (-0.5 to 0.5)” has its median near -0.016; the highest 2% begin near 0.32. This is one part of the list.
Target: T1, Stp1 (UniProt B3LFK1)
T1 sequence: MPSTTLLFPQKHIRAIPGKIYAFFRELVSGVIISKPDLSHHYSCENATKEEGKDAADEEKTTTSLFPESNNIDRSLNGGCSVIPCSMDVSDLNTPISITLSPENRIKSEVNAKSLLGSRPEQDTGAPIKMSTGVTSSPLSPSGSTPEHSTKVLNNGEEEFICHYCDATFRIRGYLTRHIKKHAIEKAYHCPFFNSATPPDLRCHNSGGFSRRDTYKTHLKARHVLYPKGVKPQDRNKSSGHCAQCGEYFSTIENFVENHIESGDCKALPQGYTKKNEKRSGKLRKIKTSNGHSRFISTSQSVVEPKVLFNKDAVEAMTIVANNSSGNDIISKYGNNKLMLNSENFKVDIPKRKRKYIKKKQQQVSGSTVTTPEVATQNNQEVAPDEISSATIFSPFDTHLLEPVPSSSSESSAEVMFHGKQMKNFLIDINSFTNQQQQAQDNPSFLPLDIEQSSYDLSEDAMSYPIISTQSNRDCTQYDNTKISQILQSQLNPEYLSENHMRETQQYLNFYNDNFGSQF
Assay: PBM E-score (8-mer binding enrichment) (E-score (-0.5 to 0.5)); higher = stronger / more preferred TF binding; most listed sequences are background and not binding sites
Settings: protein concentration: 200 nM; construct: GST-full length
In short: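 GST-tagged yeast TFs (full-length or DNA-binding domain) were made by PURExpress in vitro transcription/translation and applied at about 100-200 nM to universal all-10-mer Agilent arrays. The arrays were made double-stranded by primer extension, on fresh or once-stripped slides. Bound protein was detected with fluorescent anti-GST, and scans were normalised with masliner. Each ungapped eight-base word, pooled with its reverse complement, received an E-score (modified Wilcoxon-Mann-Whitney statistic) from the Universal PBM Analysis Suite.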

Compared with ACCCATAT, CGAGAGCG is lower in “PBM E-score” value: -0.00852 for the first, -0.133 for the second.

First: CAGCAACC
Second: TACTATAA
The “PBM E-score” value of the first is lower: -0.25 for the first, 0.144 for the second.

First: ACAGAACC
Second: TGTATAAA
The “PBM E-score” value of the first is lower: -0.136 for the first, -0.0312 for the second.

Compared with AAACCCTC, AACGCTTG is lower in “PBM E-score” value: -0.0879 for the first, -0.185 for the second.

Going from TATCAAGA to ACCTGATC, the “PBM E-score” value falls from -0.00546 to -0.184.

Compared with ATACCCAA, GTCCCCAA is lower in “PBM E-score” value: 0.0376 for the first, -0.0914 for the second.

Compared with GCAGGTAA, AATGGCAC is higher in “PBM E-score” value: -0.0691 for the first, 0.275 for the second.

Compared with ACGTTGAC, CAAGGCGG is higher in “PBM E-score” value: -0.0723 for the first, 0.101 for the second.

Compared with AGAAGCTA, CTCGCGCA is higher in “PBM E-score” value: -0.0689 for the first, -0.0098 for the second.

First: ACACGCCT
Second: AATGCGCG
The “PBM E-score” value of the first is lower: 0.121 for the first, 0.249 for the second.

First: GTGGTAGA
Second: ATCTGCTA
The “PBM E-score” value of the first is lower: -0.195 for the first, 0.0189 for the second.

First: AATGACCG
Second: CCCCAGGA
The “PBM E-score” value of the first is higher: 0.0598 for the first, -0.304 for the second.

Compared with GCTGATAC, CCGTCGAC is lower in “PBM E-score” value: 0.0381 for the first, -0.0596 for the second.

Compared with CGACCCCC, GAGGTCAC is higher in “PBM E-score” value: -0.384 for the first, -0.123 for the second.

Compared with GGACTCAC, CCACAGAC is higher in “PBM E-score” value: -0.208 for the first, -0.0942 for the second.

Compared with ACCGGTGG, TAATCACA is higher in “PBM E-score” value: -0.39 for the first, 0.00219 for the second.

Going from ACCTTAAG to CCCCGAAA, the “PBM E-score” value falls from 0.097 to -0.0653.

First: AATCGTCG
Second: ACGAAAGC
The “PBM E-score” value of the first is higher: -0.00293 for the first, -0.0461 for the second.

Going from ATGAACCG to CATATAGA, the “PBM E-score” value rises from -0.0954 to 0.16.

Going from ATCTGGTG to CGAGGACA, the “PBM E-score” value falls from 0.065 to -0.0278.

Compared with AGTCTGAT, GAGACACC is lower in “PBM E-score” value: -0.154 for the first, -0.167 for the second.

Going from GGCTTCAC to GCCGATGA, the “PBM E-score” value rises from -0.136 to -0.0281.

Going from ATGCCCAA to ACGCGATC, the “PBM E-score” value rises from -0.0229 to 0.00141.

First: AACGCCGG
Second: AAGTGTGT
The “PBM E-score” value of the first is higher: 0.0903 for the first, 0.0121 for the second.

Going from GGAAAGGA to GACCTAAC, the “PBM E-score” value rises from -0.0901 to 0.0914.

Compared with CTTCTCGA, CTAAACGA is higher in “PBM E-score” value: -0.0263 for the first, 0.0761 for the second.

First: AACCTAGT
Second: ATTTTTAC
The “PBM E-score” value of the first is lower: -0.144 for the first, 0.125 for the second.

First: ACTGTGTG
Second: GCGTAGAA
The “PBM E-score” value of the first is lower: 0.0416 for the first, 0.0493 for the second.

First: CACGACCC
Second: CGTCTATA
The “PBM E-score” value of the first is lower: -0.238 for the first, -0.0481 for the second.

First: ACAGTAGT
Second: ACTGAAAC
The “PBM E-score” value of the first is lower: -0.0193 for the first, 0.2 for the second.

Going from CTTTCCCC to ACACAAAA, the “PBM E-score” value rises from -0.13 to 0.161.

First: CCGTCAGA
Second: CCGCCGGC
The “PBM E-score” value of the first is lower: -0.253 for the first, 0.165 for the second.

First: AGCTGCTG
Second: ATGTTGTA
The “PBM E-score” value of the first is lower: 0.0686 for the first, 0.0794 for the second.

Compared with AGCACTAT, CTATGTAA is higher in “PBM E-score” value: -0.121 for the first, 0.143 for the second.

First: ATCGAATG
Second: CGATCCAA
The “PBM E-score” value of the first is lower: -0.124 for the first, -0.061 for the second.

Going from AGGCCTGA to AGTGGCTG, the “PBM E-score” value rises from -0.193 to 0.0775.

Going from GAGGAGTA to GCAACGTA, the “PBM E-score” value rises from -0.172 to 0.0395.

First: CACACTTA
Second: AACGGCCT
The “PBM E-score” value of the first is lower: 0.0508 for the first, 0.151 for the second.

First: CCTAAGTA
Second: AGTTAGAA
The “PBM E-score” value of the first is higher: 0.0806 for the first, -0.0258 for the second.

Going from CCGGTGTA to CCCTTAAG, the “PBM E-score” value rises from -0.0866 to -0.0477.

Going from AGTCTATC to CTCGTGGC, the “PBM E-score” value rises from -0.0873 to 0.0434.

Going from CCCCGATA to GGTGAACC, the “PBM E-score” value rises from -0.29 to 0.135.

First: AATAACGC
Second: GCTTATCA
The “PBM E-score” value of the first is higher: 0.0286 for the first, -0.0889 for the second.

First: TATATTGA
Second: ACAACATC
The “PBM E-score” value of the first is higher: 0.0549 for the first, -0.00797 for the second.

Going from ATCCGATC to CTAAAAGA, the “PBM E-score” value rises from 0.0298 to 0.0334.

Compared with GCTGAGTA, ATATACCA is lower in “PBM E-score” value: -0.067 for the first, -0.076 for the second.

First: ATTAATGG
Second: ATACCGAC
The “PBM E-score” value of the first is higher: 0.191 for the first, -0.117 for the second.

Compared with ATTAACTA, CCAACTGG is lower in “PBM E-score” value: 0.0707 for the first, -0.00063 for the second.

Going from GGCTAACA to ACTCGTAC, the “PBM E-score” value falls from 0.0133 to -0.0899.

Compared with CGTATGGA, CGACCAAA is higher in “PBM E-score” value: 0.117 for the first, 0.183 for the second.

Compared with GTTCTCCA, AACTAGTT is higher in “PBM E-score” value: -0.188 for the first, 0.0227 for the second.

First: AAATATAC
Second: GGATCATA
The “PBM E-score” value of the first is lower: 0.0576 for the first, 0.0577 for the second.

Going from CCATATAG to TAGGTGGA, the “PBM E-score” value falls from 0.0156 to -0.21.

Compared with ACCGGGCA, ATGCCTCG is higher in “PBM E-score” value: -0.123 for the first, 0.412 for the second.

Compared with AAAGCTGC, CATGCAGC is lower in “PBM E-score” value: 0.0495 for the first, 0.0394 for the second.

Compared with AGAGAGGG, GGAGTGCC is higher in “PBM E-score” value: -0.227 for the first, 0.27 for the second.

Compared with CATAAGAG, AGAAGCTC is lower in “PBM E-score” value: 0.0766 for the first, -0.277 for the second.

First: AACGGTGG
Second: ACGATGAC
The “PBM E-score” value of the first is lower: -0.26 for the first, 0.0649 for the second.

Compared with CGCGTCCG, GCCCGACA is lower in “PBM E-score” value: -0.0671 for the first, -0.101 for the second.

Compared with AACCGATG, CCAAGATC is lower in “PBM E-score” value: 0.016 for the first, -0.0906 for the second.

Going from ATCTTCCC to AAATGTCT, the “PBM E-score” value rises from -0.145 to -0.057.

First: AATGAGCC
Second: GTCAATCA
The “PBM E-score” value of the first is higher: 0.0958 for the first, -0.0685 for the second.

First: CGCTCGTC
Second: ACTGCACG
The “PBM E-score” value of the first is lower: -0.0772 for the first, 0.033 for the second.

Compared with CCCCGAGA, GCCTACAA is higher in “PBM E-score” value: -0.193 for the first, 0.14 for the second.

Compared with AACACTTG, TCGAGGAA is higher in “PBM E-score” value: -0.12 for the first, -0.119 for the second.

First: GTTCTAAA
Second: CGGAGTTA
The “PBM E-score” value of the first is higher: 0.111 for the first, -0.0286 for the second.

Going from CGCTCCAA to ACGTTTCC, the “PBM E-score” value falls from -0.0696 to -0.153.

Compared with CGTCCGCA, GATGATTA is higher in “PBM E-score” value: 0.0445 for the first, 0.113 for the second.

First: TCGAAAAA
Second: AGGCATGA
The “PBM E-score” value of the first is higher: 0.156 for the first, -0.0157 for the second.

Compared with ACTCCTCC, AATGCTAT is higher in “PBM E-score” value: -0.213 for the first, -0.0333 for the second.

Compared with GGGCTAGA, AAACCGTC is higher in “PBM E-score” value: -0.142 for the first, -0.0591 for the second.

Compared with ACGTAAAC, TACTTCGA is higher in “PBM E-score” value: -0.0813 for the first, 0.211 for the second.

Compared with ACAACTAG, GGTTCCAA is higher in “PBM E-score” value: -0.0839 for the first, 0.112 for the second.

First: AACAGCGC
Second: TCTCCTAA
The “PBM E-score” value of the first is higher: 0.0288 for the first, -0.132 for the second.

Going from AAGCCTCA to GTCGGCAA, the “PBM E-score” value rises from -0.0215 to 0.0611.

Going from CCTGTTGC to GGGTCTCA, the “PBM E-score” value falls from -0.107 to -0.199.

Going from CAGCGCCC to CTAATTGC, the “PBM E-score” value falls from 0.188 to 0.0448.

First: AATAGGCT
Second: AAGACCCG
The “PBM E-score” value of the first is higher: -0.0149 for the first, -0.0344 for the second.

Going from GGGATAAC to CCGAGCGA, the “PBM E-score” value rises from -0.265 to 0.103.

Going from CAAATGCC to GGAGCTTA, the “PBM E-score” value falls from 0.227 to -0.198.

Compared with GGGCCTCA, ACTTTATC is higher in “PBM E-score” value: -0.0568 for the first, -0.0288 for the second.

First: GAACTCCC
Second: CGATTTGA
The “PBM E-score” value of the first is lower: -0.0954 for the first, 0.0308 for the second.

Going from GGGTGGAC to GACCCCGA, the “PBM E-score” value falls from -0.176 to -0.197.

First: AGCTGCAA
Second: ACCGACTA
The “PBM E-score” value of the first is higher: -0.0232 for the first, -0.17 for the second.

First: GTCACGAC
Second: ATAACCAC
The “PBM E-score” value of the first is lower: -0.0607 for the first, -0.0312 for the second.

Compared with CCCAACAG, AAATCAGT is higher in “PBM E-score” value: -0.162 for the first, -0.00013 for the second.
